In all, about 350,000 compounds went through this assay and about 31,000 (8.9%) were called active. The inconclusive results got no clear call from the source; some entries with a clear call stand among them for comparison. Calls come from the whole dose curve; as a rule, active = well fitted inhibition curve with a large enough effect; inconclusive = small, poorly fitted or top-dose-only effect; inactive = no such curve, though single readings can be large or run the other way. Potencies beside an inconclusive call are fits to weak or partial responses and may not hold up.
Molecular target: Histone-lysine N-methyltransferase EHMT2 (Homo sapiens) (UniProt Q96KQ7)
Chain of UniProt Q96KQ7 (Q96KQ7 whole entry, looked up): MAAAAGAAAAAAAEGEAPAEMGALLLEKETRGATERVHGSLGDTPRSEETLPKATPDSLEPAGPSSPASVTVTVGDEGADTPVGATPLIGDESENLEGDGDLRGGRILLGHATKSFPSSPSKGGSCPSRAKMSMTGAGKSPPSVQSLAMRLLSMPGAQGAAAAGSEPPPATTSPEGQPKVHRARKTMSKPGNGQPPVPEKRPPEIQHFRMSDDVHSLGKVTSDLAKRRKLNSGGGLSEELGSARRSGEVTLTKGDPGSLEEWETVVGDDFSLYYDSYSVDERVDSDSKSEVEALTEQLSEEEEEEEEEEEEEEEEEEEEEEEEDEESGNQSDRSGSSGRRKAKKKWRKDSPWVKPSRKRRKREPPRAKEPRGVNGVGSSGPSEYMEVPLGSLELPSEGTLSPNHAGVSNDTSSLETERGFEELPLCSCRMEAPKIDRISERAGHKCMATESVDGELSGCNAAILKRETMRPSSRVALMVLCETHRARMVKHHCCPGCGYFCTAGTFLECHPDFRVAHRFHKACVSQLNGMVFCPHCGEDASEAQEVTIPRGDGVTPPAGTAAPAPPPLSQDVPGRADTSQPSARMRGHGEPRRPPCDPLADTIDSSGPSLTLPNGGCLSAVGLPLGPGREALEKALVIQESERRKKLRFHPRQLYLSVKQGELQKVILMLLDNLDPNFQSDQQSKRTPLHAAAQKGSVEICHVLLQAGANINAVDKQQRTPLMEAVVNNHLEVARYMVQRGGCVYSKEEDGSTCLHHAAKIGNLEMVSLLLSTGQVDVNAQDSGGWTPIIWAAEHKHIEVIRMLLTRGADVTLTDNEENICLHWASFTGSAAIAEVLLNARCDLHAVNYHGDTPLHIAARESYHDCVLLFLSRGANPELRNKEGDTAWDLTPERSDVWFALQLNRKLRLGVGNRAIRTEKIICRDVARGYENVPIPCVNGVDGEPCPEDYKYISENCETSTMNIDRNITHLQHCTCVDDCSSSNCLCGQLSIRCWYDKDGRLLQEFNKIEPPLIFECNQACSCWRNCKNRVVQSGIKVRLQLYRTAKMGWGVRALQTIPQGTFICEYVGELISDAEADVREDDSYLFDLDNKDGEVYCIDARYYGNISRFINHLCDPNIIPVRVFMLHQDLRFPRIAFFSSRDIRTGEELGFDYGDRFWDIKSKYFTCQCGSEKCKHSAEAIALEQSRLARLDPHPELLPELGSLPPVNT
Test: qHTS Assay for Inhibitors of Histone Lysine Methyltransferase G9a; note: nearly all actives have a fitted effect of over 75% in size
Conditions: G9a H3K9 monomethylation, AlphaScreen, 2 h; activity, negative = inhibition: at 59 µM (top of the series) unless noted
Method in brief: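 Chemiluminescent proximity detection of H3K9 monomethylation, read after 10 min bead incubation in the dark. Reaction: 20 nM G9a, 500 nM biotin-H3K9 peptide, 20 uM SAM cofactor, 2 h, room temperature, following 15 min enzyme-compound preincubation.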
% is set by controls: 0 for no effect and ±100 for the full control effect; potency is the fitted concentration of half-maximal effect; tags give direction and shape of the fitted curve.

SMILES	Potency	activity, negative = inhibition
COc1ccc(NC(=O)/C(N=Nc2cc(S(=O)(=O)Nc3ccc(OC)cc3)ccc2OC)=C(\C)O)cc1	inconclusive: 35.5 µM [inhibitor, partial curve]	
Cc1cccc(Cn2c(C(=O)OC(C)C)cc3c2ccn3C)c1	inconclusive: 79.4 µM [inhibitor, single point]	
NC(=O)COC(=O)c1cccc(S(=O)(=O)N2CCN(c3ccccc3)CC2)c1		inactive: -30.5% [at 102 µM]
CCOC(=O)C1(N(CC)CC)Sc2cc(C)ccc2NC1=O (stereo not drawn)	inconclusive: 89.1 µM [inhibitor, single point]	
CCN(CC)C(=O)C1CCCN(Cc2ccc(F)c(F)c2)C1 (stereo not drawn)	inconclusive: 31.6 µM [inhibitor, single point]	
CCc1ccc(-c2cc3c(=O)n(CC(=O)N4CCCC4)nc(C)n3n2)cc1	inconclusive: 89.1 µM [inhibitor, single point]	
N#CC1(NC(=O)CN2C(=O)c3ccc([N+](=O)[O-])cc3C2=O)CCCCC1	inconclusive: 44.7 µM [inhibitor, partial curve, poor fit]	
Cc1ccc(C)c(N2CCN(C(=O)c3cc4ccccn4n3)CC2)c1	active: 50.1 µM	
NC(=O)C1CCN(C(=O)C2CC(=O)N(c3ccc4c(c3)OCCO4)C2)CC1 (stereo not drawn)		inactive: -10.9% [at 2.33 µM]
O=C(CSc1ccccc1)NCCSCc1ccccc1	inconclusive: 22.4 µM [inhibitor, single point]	
CCOc1ccc(NC(=O)C2CC(=O)NC(=Nc3ccc(Cl)c(Cl)c3)S2)cc1 (stereo not drawn)	inconclusive: 3.55 µM [inhibitor, partial curve, poor fit]	
O=C(Nc1cccc(S(=O)(=O)N2CCCCC2)c1)c1ccccc1NS(=O)(=O)c1ccc(F)cc1	inconclusive: 8.91 µM [inhibitor, full curve, poor fit]	
CC(C)=NNc1nc2c(c(=O)n(C)c(=O)n2C)n1CCc1ccccc1	inconclusive: 1.78 µM [inhibitor, full curve, poor fit]	
Cc1ccc(S(=O)(=O)N2CCC(C(=O)OCC(=O)N3CCCCC3C)CC2)cc1C (stereo not drawn)	inconclusive: 39.8 µM [inhibitor, partial curve, poor fit]	
COc1cc(/C=N/NC(=O)C(C)Nc2n[nH]c(=O)[nH]c2=O)cc(OC)c1O (stereo not drawn)	active: 35.5 µM	
COc1ccc(C(=O)CSc2ncn[nH]2)cc1OC	inconclusive: 89.1 µM [inhibitor, single point]	
O=C(NC1(O)C(=O)c2ccccc2C1=O)c1c(Cl)cccc1Cl	active: 56.2 µM	
Cc1cc(C)nc(SCC(=O)Nc2ncc(C(F)(F)F)cc2Cl)n1		inactive: 8.88%
Cc1ccc(NC(=O)c2oc3ccc(S(=O)(=O)N4CCC5(CC4)OCCO5)cc3c2C)cc1C	inconclusive: 89.1 µM [inhibitor, partial curve, poor fit]	
Cc1cc(C)c(NC(=O)COC(=O)c2cccc3c2C(=O)c2ccccc2C3=O)c(C)c1	inconclusive: 22.4 µM [inhibitor, single point]	
Cc1ccc(-c2n[nH]c3c2C(c2ccc(C(C)(C)C)cc2)NC3=O)cc1 (stereo not drawn)		inactive: -5.86%
Cc1cc(C(=O)CSc2nnc(N)s2)c(C)n1Cc1cccs1	inconclusive: 15.8 µM [inhibitor, single point]	
Cc1ccc(CSC2=Nc3ccccc3C3=NC(CCC(=O)NCc4ccco4)C(=O)N23)cc1 (stereo not drawn)	inconclusive: 50.1 µM [inhibitor, partial curve, poor fit]	

SMILES	Potency	activity, negative = inhibition
CC1CN(CCCCOc2ccc3ccccc3c2)CC(C)O1 (stereo not drawn)	active: 2 µM	
COC(=O)c1sccc1S(=O)(=O)N1CCN(c2cc(Cl)ccc2C)CC1		inactive: 16.5%
CCOc1ccc(N2C(=O)C3Sc4[nH]c(=O)sc4C(c4ccc(OC)c(OC)c4)C3C2=O)cc1 (stereo not drawn)	inconclusive: 79.4 µM [inhibitor, single point]	
CCOC(=O)c1ccccc1NC(=O)COc1coc(CN2CCc3ccccc32)cc1=O	active: 39.8 µM	
O=C(CCCCCCC(=O)NCc1ccccc1)NCc1ccccc1		inactive: -2.68% [at 102 µM]
COc1cccc(Nc2ccc3cc(S(=O)(=O)N4CCC(C)CC4)ccc3n2)c1	inconclusive: 15.8 µM [inhibitor, partial curve, poor fit]	
CCCN1C2=NS(=O)(=O)CCN2c2ccccc21	inconclusive: 1.58 µM [inhibitor, partial curve, poor fit]	
Cc1nnc(N2CCC(C(=O)N3CCCCCC3)CC2)c2nn(-c3ccc(Cl)cc3)c(C)c12		inactive: 14.2% [at 102 µM]
Cc1ccn2cc(CC(=O)O)nc2c1	active: 20 µM	
CC(C)(C)c1[nH]nc2c1C(C1C=CCCC1)C(C#N)=C(N)O2 (stereo not drawn)	inconclusive: 89.1 µM [inhibitor, single point]	
Cc1ccccc1-c1nc2scc(CCNS(=O)(=O)c3ccccc3)n2n1		inactive: 2.93%
Cc1nn2c(=O)cc(COC(=O)c3cccc(NC(=O)CCc4ccccc4)c3)nc2s1	inconclusive: 39.8 µM [inhibitor, single point]	
O=C(O)c1ccc2nc3c(nc2c1)-c1ccccc1C3=O	active: 31.6 µM	
COc1cc(/C=C(/C#N)c2ccc(F)cc2)ccc1OCc1ccc(C(=O)O)o1		inconclusive: -57.3% [inhibitor]
Cc1cccc(S(=O)(=O)N2CN(Cc3ccco3)c3nc4ccccc4nc32)c1		inconclusive: -109% [inhibitor]
O=C(N/C(=C\c1cccc([N+](=O)[O-])c1)C(=O)N1CCOCC1)c1ccco1	inconclusive: 89.1 µM [inhibitor, single point]	
COC(=O)CN(Cc1ccco1)S(=O)(=O)c1ccccc1		inactive: -21%
CC(=O)c1cccc(NC(=O)C2CCN(C(=O)c3cnn(-c4ccccc4)c3-n3cccc3)CC2)c1		inactive: 19.5%
Cc1c(C(=O)NCc2ccccc2Cl)sc2nc3n(c(=O)c12)CCCCC3		inactive: -28.6%
Cc1cc(C)cc(N(C(=O)C2CCCC2)C2C=CS(=O)(=O)C2)c1 (stereo not drawn)	inconclusive: 89.1 µM [inhibitor, single point]	
NS(=O)(=O)c1cc(C(=O)OCC(=O)N2CCc3ccccc3C2)ccc1Cl	inconclusive: 0.562 µM [inhibitor, single point]	
Cc1[nH]nc2c1C(c1ccoc1)C(C#N)=C(N)O2 (stereo not drawn)	inconclusive: 89.1 µM [inhibitor, single point]	
CCCCCOC(=O)c1[nH]c2c(c1C)C(=O)C(C(=O)OC)C(C)C2 (stereo not drawn)	inconclusive: 79.4 µM [inhibitor, single point]	

SMILES	Potency	activity, negative = inhibition
CN1CCN(S(=O)(=O)c2ccc(CNC(=O)c3ccccc3)s2)CC1		inactive: 15.6% [at 102 µM]
CCOc1ccccc1NC(=O)c1ccc(S(=O)(=O)N2CCOCC2)cc1		inactive: -0.0983% [at 102 µM]
COc1ccc(C(=O)c2oc3nc(C)cc(C)c3c2N)cc1		inconclusive: -60% [inhibitor]
BrC(=C\c1ccccc1)/C=N/Nc1nc2ccccc2[nH]1	inconclusive: 22.4 µM [inhibitor, single point]	
O=C1COc2ccc(C(=O)c3ccccc3C(=O)NCc3ccco3)cc2N1	inconclusive: 89.1 µM [inhibitor, partial curve, poor fit]	
COC(=O)C(Cc1c[nH]c2ccccc12)NC(=O)c1cccc(S(=O)(=O)N2CCCCC2)c1 (stereo not drawn)	inconclusive: 8.91 µM [inhibitor, single point]	
CC(=O)Nc1ccc(SC[C@H](C)CN2CC[C@H](C(C)(C)C)CCC2=O)cc1		inconclusive: -94.6% [inhibitor] [at 2.33 µM]
CC(C)Oc1ccccc1C1C=C(C(=O)O)Nc2ncnn21 (stereo not drawn)	active: 14.1 µM	
CCOC(=O)Cc1csc(NC(=O)COc2ccc(N(C)S(=O)(=O)c3cccs3)cc2)n1	inconclusive: 3.16 µM [inhibitor, partial curve, poor fit]	
CC1CC(C)C[N+](=C2C=C(N3CCCC3)CC(C)(C)C2)C1 (stereo not drawn)	inconclusive: 50.1 µM [inhibitor, partial curve, poor fit]	
COc1ccc(CN2CCNC(=O)C2CC(=O)O)cc1OC (stereo not drawn)	inconclusive: 35.5 µM [inhibitor, single point]	
CCn1cc(CCC(=O)NCc2ccc(C)cc2)c2ccccc21	inconclusive: 31.6 µM [inhibitor, partial curve, poor fit]	
COc1ccc(N2C(=O)CC(Sc3n[nH]c(-c4ccc(C)cc4)n3)C2=O)cc1 (stereo not drawn)	active: 1.58 µM	
Cc1ccc2c(c1)C(Cc1ccccc1F)C(=O)N2 (stereo not drawn)		inactive: -10.2%
COc1ccc(N=C2SC(C(=O)O)CC(=O)N2C)cc1 (stereo not drawn)	inconclusive: 89.1 µM [inhibitor, single point]	
COc1ccc(S(=O)(=O)Nc2ccccc2C(=O)NCc2ccco2)cc1Br	inconclusive: 25.1 µM [inhibitor, single point]	
Cc1cc(C=O)c(C)n1-c1ccc2c(c1)OCO2	inconclusive: 89.1 µM [inhibitor, single point]	
COc1ccc(-c2nc(CS(=O)(=O)CC(=O)NCc3cccc(F)c3)c(C)o2)cc1	inconclusive: 89.1 µM [inhibitor, single point]	
CCOc1ccc(Nc2nc3cc(Cl)c(Cl)cc3nc2-n2nc(C)cc2C)cc1		inactive: 1.41%
Cc1c(C(=O)N(Cc2ccc(N(C)C)cc2)CC2CCCO2)oc2ccc(Cl)cc12 (stereo not drawn)	active: 11.2 µM	
COc1ccc(CC(=O)Nc2cccc(C(=O)O)c2C)cc1	inconclusive: 12.6 µM [inhibitor, partial curve, poor fit]	
CCOc1ccc(S(=O)(=O)Nc2ccc3c(c2)OCO3)cc1	inconclusive: 79.4 µM [inhibitor, partial curve, poor fit]	

From PubChem BioAssay AID504332 (National Center for Advancing Translational Sciences (NCATS), 2011)
